From PubChem BioAssay AID686978 (National Center for Advancing Translational Sciences (NCATS), 2013)
In all, about 420,000 compounds went through this assay and about 64,000 (15%) were called active. The inconclusive results got no clear call from the source; some entries with a clear call stand among them for comparison. Calls come from the whole dose curve; as a rule, active = well fitted inhibition curve with a large enough effect; inconclusive = small, poorly fitted or top-dose-only effect; inactive = flat fitted curve, though single readings scatter. Potencies of inconclusive entries are left out as doubtful fits.

Assay: qHTS for Inhibitors of human tyrosyl-DNA phosphodiesterase 1 (TDP1): qHTS in cells in absence of CPT; note: nearly all actives have a fitted effect of over 55% in size
Conditions: DT40 Tdp1-/- hTDP1 cells, no CPT, ATP luminescence, 48 h; activity change, negative = growth inhibition: at 46.2 µM (top of the series)
Method in brief: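 A cellular qHTS used chicken DT40 cells lacking endogenous Tdp1 but carrying stably transfected human TDP1. Compounds were applied without camptothecin, and cell growth kinetics were judged by ATP-dependent luminescence after ≥48 hr.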
% is set by controls: 0 for no effect and ±100 for the full control effect; potency is the fitted concentration of half-maximal effect; tags give direction and shape of the fitted curve.

| SMILES | Potency | activity change, negative = growth inhibition |
| --- | --- | --- |
| Cc1ccccc1C(=O)N1CCN(c2ccc(NC(=O)c3ccco3)cc2Cl)CC1 | active: 9.2 µM | – |
| CN(C)c1ncnc2c1ncn2[C@H]1CN(Cc2ccc(F)cc2)C[C@@H](CO)O1 | inactive | – |
| CCC(C(=O)Nc1cc(C)ccc1C)n1c(=O)c(C(F)(F)F)nc2ccccc21 (stereo unspecified) | inconclusive [inhibitor, single point] | – |
| CCc1cccc(NC(=O)c2ccc(Cn3c(=O)[nH]c4ccsc4c3=O)cc2)c1 | inactive | – |
| CCOC(=O)C1=C(O)/C(=C\c2sccc2C)N=C1C | inactive | – |
| CCCc1ccc2c(C(F)(F)F)cc(C(F)(F)F)cc2n1 | inactive | – |
| CC(C)C1COS(=O)(=O)NC1CC(=O)SC(C)(C)C (stereo unspecified) | – | inconclusive: -35% [inhibitor] |
| CCOC(=O)[C@]12CCCC=C1N(Cc1ccc(Cl)cc1Cl)C(=O)[C@H](CC(=O)N1CCC(c3ccccc3)CC1)C2 | active: 18.4 µM | – |
| O=C(Nc1ccc2ncccc2c1)c1cc(Cl)ccc1Cl | inconclusive [inhibitor, single point] | – |
| C=CCC(O)(CC=C)C(C)N (stereo unspecified) | inactive | – |
| COc1ccc(C(=O)/C=C/c2cn(CC(O)CN3CCc4ccccc43)c3ccccc23)cc1OC (stereo unspecified) | active: 4.11 µM | – |
| Cc1ccc(-n2c(C)cc(C(=O)OCC(=O)N(CC(C)C)C3CCS(=O)(=O)C3)c2C)cc1 (stereo unspecified) | inconclusive [inhibitor, single point] | – |
| Cc1ccc(C(=O)Nc2nc(=O)[nH]s2)cc1 | inactive | – |
| CC(=O)c1c(C)[nH]c(C(=O)NNC(=O)c2ccc(C)cc2)c1C | inactive | – |
| COc1ccc(NC(=O)C2=C(C)C(=O)OC23CCC(C)CC3)c(OC)c1 (stereo unspecified) | inconclusive [inhibitor, single point] | – |
| CC(C)C(NC(=O)OCc1ccccc1)C(=O)OCC(=O)NC1CC1 (stereo unspecified) | inactive | – |
| CCOc1ccccc1NC(=S)N1CCN(c2cccc(OC)c2)CC1 | inconclusive [inhibitor, single point] | – |
| CCOC(=O)c1cnc2c(CC)cccc2c1NCCCN1CCOCC1 | inconclusive [inhibitor, single point] | – |
| O=C(Cc1csc(Nc2nc(=S)[nH]c3ccccc23)n1)NCc1ccc(Cl)cc1 | inconclusive [inhibitor, single point] | – |
| Cc1nn(C)c(C)c1C(C)NC(=O)c1ccc(OC2CCN(Cc3ccccn3)CC2)cc1 (stereo unspecified) | inactive | – |
| CC(=O)c1c(C)n(CCc2ccc(Cl)cc2)c2ccc(O)cc12 | inactive | – |
| COc1ccc(-c2cnc(-c3cccnc3)o2)cc1 | – | inactive: -7.74% [at 9.04 µM] |
| COc1ccc2c(n1)Sc1nc3ccccc3nc1N2 | inconclusive [inhibitor, single point] | – |

| SMILES | Potency | activity change, negative = growth inhibition |
| --- | --- | --- |
| N#Cc1ccc(NC(=O)Cn2cnc(S(=O)(=O)N3CCc4ccccc43)c2)cc1 | inconclusive [inhibitor, single point] | – |
| Nc1c(N(CCC2=CCCCC2)C(=O)CCCOc2ccccc2)c(=O)[nH]c(=O)n1Cc1ccccc1 | inactive | – |
| COCCn1c(=O)cnc2cnc(Nc3cccc(OC)c3)nc21 | inconclusive [inhibitor, single point] | – |
| Cc1ccccc1OCC(=O)Nc1ccc2oc(=O)ccc2c1 | inconclusive [inhibitor, partial curve] | – |
| O=C(OCc1ccccc1)N(CCCCN(CCCNCc1ccccc1)C(=O)OCc1ccccc1)CCCNCc1ccccc1 | active: 5.17 µM | – |
| O=C(Oc1cccnc1)c1cc2ccccc2oc1=O | inactive | – |
| COc1cc(C(=O)NNC(=O)c2cc(C)[nH]n2)cc(OC)c1OC | inactive | – |
| O=[N+]([O-])c1cc2c(cc1CN1CCN(c3ccc(F)cc3)CC1)OCO2 | inactive | – |
| Cn1c(=O)c2c(-c3ccccc3)n(-c3cc(C(=O)O)ccc3O)cc2n(C)c1=O | inactive | – |
| C=C1C(=O)O[C@@H]2[C@H]1[C@@H](OC(=O)/C(C)=C/C)C/C(C)=C\C(=O)/C=C(\C)[C@@H]2O | active: 2.06 µM | – |
| COc1ccc(NC(C)=O)c([N+](=O)[O-])c1[N+](=O)[O-] | inconclusive [inhibitor, single point] | – |
| COc1cc(C(=O)Nc2nc3ccccc3[nH]2)ccc1OC(F)F | active: 14.6 µM | – |
| CCOC(=O)CNC(=O)Cn1c(C)cc2ccccc2c1=O | inactive | – |
| Cc1cc(C)n(-c2nc(C)c(C)c(=O)n2CC(=O)Nc2ccc([N+](=O)[O-])cc2)n1 | active: 20.6 µM | – |
| CN(C)CCCNC(=S)NCC(c1ccc(Cl)cc1Cl)c1c[nH]c2ccccc12 (stereo unspecified) | inconclusive [inhibitor, single point] | – |
| C=CCn1c(SCC(=O)N2CCOCC2)nc2c([nH]c3ccccc32)c1=O | inconclusive [inhibitor, single point] | – |
| CC(=O)Nc1ccc(/C=C/c2sc3ccccc3[n+]2CCCCI)cc1 | inconclusive [inhibitor, single point] | – |
| CCCn1c(N)c(Sc2ccc([N+](=O)[O-])cc2)c(=O)n(CCC)c1=O | inconclusive [inhibitor, single point] | – |
| COCC(=O)n1nc(-c2ccco2)nc1NCc1ccccc1Cl | inconclusive [inhibitor, partial curve, poor fit] | – |
| Cc1cc(NC(=O)CSc2nnc(-c3ccccc3)c(-c3ccccc3)n2)no1 | active: 5.17 µM | – |
| O=C(CCCNS(=O)(=O)c1ccc(Br)cc1)N1CC[C@@]2(O)CCCC[C@H]2C1 | inconclusive [inhibitor, partial curve, poor fit] | – |
| C#CCOCCOCCOCCNc1nc(N2CCN(C(=O)CCCCCCCCCCNC(=O)[C@@H](CCSC)n3cc(CCO)nn3)CC2)nc(N2CCN(C(=O)CCCCCCCCCCNC(=O)[C@H](CCCN=C(N)N)n3cc(C[C@@H](C)CC)nn3)CC2)n1 | inconclusive [inhibitor, single point] | – |
| O=C(NCCc1cccc(F)c1)C1CCC(=O)N(CCCc2ccccc2)C1 (stereo unspecified) | inconclusive [inhibitor, single point] | – |
